From article PMC13046382, “Peptidoglycan recycling is critical for cell division, cell wall integrity, and β-lactam resistance in Caulobacter crescentus” (eLife, 2026)

Molecular target: T1, BlaA (Caulobacter vibrioides, UniProt Q9A6F5)
T1 construct: gene CC_2139
Conditions: C. crescentus cells in PBS, 30 °C

## O=C(Cc1cccs1)N[C@@H]1C(=O)N2C(C(=O)O)=C(/C=C/c3ccc([N+](=O)[O-])cc3[N+](=O)[O-])CS[C@H]12 [nitrocefin]
  chromogenic hydrolysis, absorbance at 482 nm: incubated cells with the chromogenic β-lactam nitrocefin
